Assay results as given in PubChem BioAssay AID493208 (National Center for Advancing Translational Sciences (NCATS), 2011).
In all, about 44,000 compounds went through this assay and about 340 (0.77%) were called active. Inconclusive results (about 5%) are left out. Calls follow the shape of the dose curve; as a rule, active = well fitted inhibition curve with a large enough effect; inconclusive = small, poorly fitted or top-dose-only effect; inactive = flat fitted curve, though single readings scatter. The list shows a part of the results.

assay: Acumen qHTS Assay for Inhibitors of the mTORC1 Signaling Pathway in MEF (Tsc2-/-, p53-/-) Cells: Sytravon; conditions: phospho-rpS6 immunofluorescence/PI, 24 h; series mostly up to 38.3 µM; activity change, negative = inhibition: at the top concentration; also: nearly all actives have a fitted effect of over 50% in size;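 as to activity change, negative = inhibition: plate controls were DMSO for no effect and rapamycin for full effect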
Method in brief: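 Tsc2-/-, p53-/- mouse embryonic fibroblasts (empty-vector line) exposed to compound 24 hrs at 37 C, fixed, immunostained for phospho-rpS6 and counterstained with propidium iodide. Acumen laser scanning gives % positive cells from Alexa 488/PI ratio, thresholded using 7.5 nM rapamycin; PI count gives viability.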
Potency is read from the fitted curve at half-maximal effect.

SMILES | activity change, negative = inhibition | Potency
COCCn1c(C)cc(O)c(C(c2ccccc2)N2CCCCC2)c1=O (stereo not given) | inactive: -9.25% | 
CC(C)Cc1nn2c(=O)cc(COC(=O)c3cccc(NC(=O)c4ccccc4)c3)nc2s1 | inactive: 0% | 
COc1ccc(NC(=O)c2cc(C3CC3)nc3c2c(C)nn3-c2ccccc2)c(OC)c1 | inactive: 6.04% | 
CCCN(CCC)CCNC(=O)c1cc2c(=O)oc3ccc(C)cc3c2s1 | inactive: -1.66% | 
Cc1c(C(=O)Nc2cccc(C(F)(F)F)c2)sc2nc3n(c(=O)c12)CCC3 | inactive: 0.659% | 
Cc1cccc(Cn2cc3c(=O)n(CC(=O)Nc4cccc(C)c4C)nc-3c3cc(F)ccc32)c1 | inactive: -2.16% | 
Cc1cccc(N2CCN(C(=O)c3cc4ccc5cccnc5c4[nH]3)CC2)c1C | inactive: -16.6% | 
CCOCCCNC(=O)Cn1ncc2c([nH]c3ccccc32)c1=O | inactive: -2.64% | 
Clc1ccccc1CNCCCSc1nnnn1-c1ccccc1 | inactive: -6.17% | 
CCOc1ccc(/C=C/c2nc(C#N)c(NCc3ccc(OC)cc3)o2)cc1 | inactive: 0.45% | 
Cc1noc(C)c1S(=O)(=O)N(CC(=O)Nc1ccc(C(F)(F)F)cc1)c1ccc(C(C)C)cc1 | inactive: 0.194% | 
CCN(CC)S(=O)(=O)c1ccc2c(c1)N(CC(=O)Nc1cccc(C)c1C)C(=O)C1CCCN21 (stereo not given) | inactive: -5.76% | 
COC(=O)c1ccc(NC(=O)C(=O)NCCc2csc3nc(-c4ccccc4F)nn23)cc1 | inactive: 0% | 
O=C(NCc1ccc2c(c1)CCN2C(=O)c1ccc(F)cc1)c1c(F)cccc1F | inactive: -1.74% | 
COc1cccc(-c2noc(-c3cc4ccccc4oc3=O)n2)c1OC | inactive: -1.65% | 
CCOc1ccccc1NC(=O)CSc1cn(CC(=O)N2CCCCCC2)c2ccccc12 | inactive: 1.39% | 
COc1cc(OC)c(NC(=O)C(CC(C)C)N2Cc3ccccc3C2=O)cc1Cl (stereo not given) | inactive: 2.31% | 
Cc1ccc(NC(=O)CCN2C(=O)c3ccccc3Sc3ncccc32)cc1 | inactive: -11.7% | 
COc1ccc(C)cc1NC(=O)CSc1ncc2c(n1)-c1ccc(Cl)cc1N(Cc1ccccc1)S2(=O)=O | inactive: 2.67% | 
CC1=C(C(=O)Nc2ccccc2)C(c2ccc(F)cc2)n2nc(SCc3cc(C)ccc3C)nc2N1 (stereo not given) | inactive: 0.181% | 
Cc1ccc(-c2nonc2NC(=O)c2ccco2)cc1C | inactive: -7.32% | 
COc1cc(CNc2ccc3[nH]c(=O)[nH]c3c2)cc(Cl)c1OCc1ccccc1F | inactive: -14.4% | 
Cc1ccc(-c2nc3ccccc3[nH]2)cc1NC(=O)COc1cccc(C)c1C | inactive: -12.6% | 
Cc1oc(C)c2c(=O)cc(-c3ccc4c(c3)OCO4)cc(OC(=O)c3ccc(Cl)cc3)c12 | inactive: -8.7% | 

SMILES | activity change, negative = inhibition | Potency
Cc1ccc(-c2nn(CC(=O)Nc3cccc(C(F)(F)F)c3)c(=O)c3ccccc23)cc1 | inactive: -3.92% | 
Cc1ccc(CNC(=O)c2ccc3c(c2)N(Cc2cccc(C)c2)C(=O)CS3)cc1 | inactive: -26.9% | 
Cc1cccc(C)c1NC(=O)CSCc1cnn(-c2ccccc2)c1-n1cccc1 | inactive: 2.22% | 
COc1ccccc1Cn1c(CNS(=O)(=O)c2cccc([N+](=O)[O-])c2)nc2cccnc21 | inactive: -4.63% | 
CCC(Sc1nc2ccccc2c2nc(CCc3c(C)n[nH]c3C)nn12)C(=O)Nc1ccccc1F (stereo not given) | inactive: 0.569% | 
COc1ccc(C)cc1NC(=O)CCn1nc(C)cc1C | inactive: 0% | 
CCN(CC)C(=O)C1=C(C)Nc2nc3ccccc3n2C1c1cccc(Cl)c1 (stereo not given) | inactive: -8.98% | 
COC(=O)c1ccc(NC(=O)CSc2n[nH]c(CC(C)C)n2)cc1 | inactive: 0.193% | 
COc1ccc(CNC(=O)c2cc3cccc(OC)c3oc2=O)cc1 | inactive: -8.78% | 
CCn1cc(C(=O)N2CCN(c3ccc(OC)cc3)CC2)c(=O)c2cc(S(=O)(=O)N(C)C3CCCCC3)ccc21 | inactive: -0.167% | 
COc1cccc(CNC(=O)c2nn(C)c3c2CS(=O)(=O)c2ccccc2-3)c1 | inactive: 2.82% | 
COc1ccc(NC(=O)CSC2=Nc3ccccc3C3=NC(CCC(=O)NCCc4ccccc4)C(=O)N23)c(OC)c1 (stereo not given) | inactive: -1.21% | 
O=C(NCc1ccco1)c1ccc2c(c1)N(Cc1ccccc1F)C(=O)c1ccccc1S2=O (stereo not given) | inactive: -7.85% | 
Cc1cccc(OC(=O)c2cc(-c3ccc(Cl)cc3)on2)c1C | inactive: -3.38% | 
COc1ccc(CNC(=O)c2cc(C)nc3c2c(C)nn3-c2cccc(Cl)c2C)cc1 | inactive: 3.96% | 
COc1cccc(NC(=O)C(CCSC)NC(=O)C2CCC(C)CC2)c1 (stereo not given) | inactive: -19.2% | 
CC(C)CN(CCCNC(=O)c1cn(C)c2ccc(S(=O)(=O)N(C)C3CCCCC3)cc2c1=O)CC(C)C | inactive: -0.162% | 
COc1ccc(C)cc1NC(=O)CC(=O)Nc1ccc2nc3n(c(=O)c2c1)CCCCC3 | inactive: -8.9% | 
CCOc1ccc(S(=O)(=O)N(C(=O)c2ccncc2)c2ccc3oc(C)c(C(=O)OC)c3c2)cc1 |  | active: 5.21 µM
CCOc1ccc(C2=CC(c3cc(Br)ccc3F)n3ncnc3N2)cc1Cl (stereo not given) | inactive: 0.46% | 
Cc1nn(CC(=O)Nc2cccc(C(F)(F)F)c2)c(=O)c2nn(-c3ccccc3)c(C)c12 | inactive: -17.8% | 
CC(C)CSc1oc(-c2ccco2)nc1S(=O)(=O)c1ccc(Br)cc1 | inactive: -20.4% | 
CCOc1ccc(-n2c(=O)c3c(C)c(C)sc3n(Cc3cc(=O)n4cc(Cl)ccc4n3)c2=O)cc1 | inactive: 0.29% | 
CN(C(=O)CSc1nc2ccccc2n1Cc1cccc(C(F)(F)F)c1)c1ccccc1 | inactive: 8.34% | 

SMILES | activity change, negative = inhibition | Potency
O=C(COC(=O)c1cc(-c2ccccc2)nc2c(Cl)cccc12)c1ccc(F)cc1 | inactive: 0.0329% | 
Cc1ccc(CCNC(=O)c2cc(-c3ccc(Cl)cc3)n[nH]2)cc1 | inactive: 1.34% | 
Cc1ccc(Nc2cc(C(=O)NCc3cccs3)c3ccccc3n2)c(C)c1 | inactive: 3.76% | 
Cc1ccc(NC(=O)Cc2coc3c(C)c(C)ccc23)cc1Cl | inactive: -11.8% | 
Cc1ccc(NC(=O)c2ccc3[nH]c(C)cc(=O)c3c2)c(C)c1 | inactive: 1.37% | 
COc1ccc(Nc2ncc3c(n2)CCN(C(=O)OC(C)(C)C)C3)cc1 | inactive: -8.42% | 
COc1ccccc1CN1CCN(C2CCN(C(=O)NC(C)C)CC2)C(=O)C1=O | inactive: 0% | 
COc1cc2ccccc2cc1C(=O)Nc1ccc2oc(-c3ccccc3)nc2c1 | inactive: -10.1% | 
CCOc1ccccc1C(=O)N(Cc1cccs1)c1ccc(Cl)cc1 | inactive: -7.54% | 
Cc1cc(O)c(-c2ccnc3cc(-c4ccccc4)nn23)cc1Cl | inactive: -21.8% | 
Cc1ccccc1CNC(=O)CCC(=O)N1CC2CCCN2c2ccccc21 (stereo not given) | inactive: 4.37% | 
CC1CCN(S(=O)(=O)c2ccc3c(c2)N(CC(=O)N2CCN(c4ccccc4)CC2)C(=O)CO3)CC1 | inactive: -9.5% | 
COc1ccccc1C(=O)Nc1nc2nc(C)c(Cc3ccccc3)c(=O)n2[nH]1 | inactive: -6.63% | 
COc1ccccc1CNc1ncnc2c1c(-c1ccccc1)cn2-c1cccc(C)c1 | inactive: -9.62% | 
CC(=O)c1ccc(NC(=O)Cn2ncc3c(C)n(Cc4ccc(F)cc4)c(C)c3c2=O)cc1 | inactive: -0.368% | 
COc1cccc(Cn2c(CNS(=O)(=O)c3ccc4c(c3)CCCC4)nc3cccnc32)c1 | inactive: -9.65% | 
CCN(CC)C(=O)CSc1nc2ccccc2c(=O)n1Cc1ccco1 | inactive: -2.08% | 
COc1ccc(Cl)cc1NC(=O)N1CC(=O)Nc2sc3c(c2C1c1ccccc1)CCCC3 (stereo not given) | inactive: -0.582% | 
CCCc1nccn1S(=O)(=O)c1cc(Br)ccc1OC | inactive: 3.02% | 
Cc1ccc(NC(=O)Cn2c(-c3cncs3)nc3ccccc32)cc1Br | inactive: -4.5% | 
COc1cc2c(C(=O)N(C)c3cc(Cl)ccc3OC)cn(CC(C)C)c(=O)c2cc1OC | inactive: 4.4% | 
CCN(C(=O)Cn1c(=O)n(CC2CCC(C(=O)NC)CC2)c(=O)c2sccc21)c1ccccc1 (stereo not given) | inactive: -4.95% | 
COc1ccc(NC(=O)CN2C(=O)CCc3cc(S(=O)(=O)N4CCOCC4)ccc32)cc1Cl | inactive: 0% | 
O=C(Nc1ccccc1)c1cn(-c2ccccc2)nc1-c1ccccc1 | inactive: -7.38% | 

SMILES | activity change, negative = inhibition | Potency
COc1ccccc1NC(=O)CSC1=Nc2ccccc2N=C(c2ccc(F)cc2)C1 | inactive: 0.752% | 
COc1ccc(Cn2ccc3nc(C)c(C(=O)Nc4ccc(OC(F)(F)F)cc4)cc3c2=O)cc1 | inactive: -8.57% | 
CCCCC(=O)OC1=C(C(=O)c2ccccc2)N(CC)S(=O)(=O)c2ccccc21 | inactive: -11.5% | 
CSc1ccc(CNC(=O)c2cc3cc(S(=O)(=O)N4CCCCC4)ccc3n2C)cc1 | inactive: -3.06% | 
O=C(Nc1cccc(-c2nc3ccccc3o2)c1)c1cccc(Br)c1 | inactive: -0.541% | 
CCOC(=O)c1c(Nc2cc(C)cc(C)c2)nnc(-c2ccccc2)c1-c1ccccc1 | inactive: -11.4% | 
COc1cccc(CNC(=O)C2CCN(S(=O)(=O)N3CCC(C)CC3)CC2)c1 | inactive: 6.31% | 
COc1ccccc1CNS(=O)(=O)c1ccc(F)c(C(=O)Nc2cc(Cl)ccc2OC)c1 | inactive: 0% | 
Cc1cccc(OCCSc2nc(-c3cccs3)nc3cc(=O)[nH]n23)c1 | inactive: 0.724% | 
COc1ccccc1N1CCN(S(=O)(=O)c2c(C)nc3sc(C)c(C)n3c2=O)CC1 | inactive: -2.61% | 
COc1cccc2c1Oc1ncccc1N(C(=O)Nc1cccc(Cl)c1)C2 | inactive: -11.1% | 
CCCCC(=O)OC1=C(C(=O)c2ccccc2)N(C)S(=O)(=O)c2ccccc21 | inactive: -17.2% | 
Cn1nc(-c2ccc(C(=O)Nc3cccc(C(F)(F)F)c3)cc2)c2ccccc2c1=O | inactive: 2.61% | 
O=C(Nc1ccc(F)cc1F)c1cnn(-c2ccc(F)cc2)c1-n1cccc1 | inactive: -2.71% | 
CCOc1ccccc1NC(=O)CN1c2ccccc2S(=O)(=O)c2ccccc21 | inactive: -12.1% | 
Cc1ccc(CNC(=O)c2cc(S(=O)(=O)N3CCCCCC3)cn2C)cc1 | inactive: 0.382% | 
COc1ccc(CNS(=O)(=O)c2cnc(N)nc2)cc1 | inactive: -1.15% | 
CCOc1ccc(NS(=O)(=O)c2ccc3[nH]cc(C(=O)NCc4ccccc4)c(=O)c3c2)cc1 | inactive: 1.55% | 
Cc1nn(C)c(C)c1S(=O)(=O)N(CC(=O)N1CCN(c2ccccc2)CC1)c1ccc(C(C)C)cc1 | inactive: -2.61% | 
CCOc1ccccc1NC(=O)C1CCN(S(=O)(=O)c2ccc3[nH]c4c(c3c2)CCCCC4)CC1 | inactive: 5.01% | 
CCCCCNC(=O)c1ccc2c(c1)nc(C)n2-c1cccc(C)c1 | inactive: -21.3% | 
O=C(CCn1c(=O)c2cccn2c2ccccc21)Nc1ccc(F)cc1 | inactive: 9% | 
Cc1cc(C)n(-c2nnc(Nc3cc(Cl)ccc3C)c3ccccc23)n1 | inactive: 15.6% | 
